Experimental data from the supplement of paper PMC7826260.
Some of the results follow. Each Rep nickase domain was tested in vitro on the same pool of single strands (1 h at 37 °C, 3 µM enzyme); the outer parts of the 90-letter strands are left off. A value is the log2 ratio of uncut reads to the pool without enzyme; uncut sequences lie near 0, cut ones below; no hit call is given. Counts are relative to all reads; uncut strands gain when others are lost, and binding without cutting may add a little.

Columns and labels:
Experiment in all cases: uncleaved DNA left, log2 of reads against the no-enzyme library (log2 ratio); higher = less cleavage (more negative = more Rep cleavage of the k-mer); sequences stand for … in CTCGTCCG…ACCGGAGA
[1] = tested on: T1, Rep nickase domain of Muscovy duck circovirus
T1 sequence (residues 1-111, tag not shown): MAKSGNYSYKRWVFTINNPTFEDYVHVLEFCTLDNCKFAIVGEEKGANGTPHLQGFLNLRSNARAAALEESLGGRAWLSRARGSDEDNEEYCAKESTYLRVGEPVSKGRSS
Description: (§1)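 A pool of 90-nt single-stranded DNAs with seven random bases just before the constant AC of the nick site (name = the seven bases) was cut by 3 µM recombinant His6-SUMO-tagged Rep nickase domain (300 nM DNA, 50 mM HEPES pH 8.0, 50 mM NaCl, 1 mM MnCl2, 1 h, 37 °C, three replicates). Uncut DNA was amplified and sequenced.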

[2] = tested on: T2, Rep nickase domain of banana bunchy top virus
T2 sequence (residues 1-94, tag not shown): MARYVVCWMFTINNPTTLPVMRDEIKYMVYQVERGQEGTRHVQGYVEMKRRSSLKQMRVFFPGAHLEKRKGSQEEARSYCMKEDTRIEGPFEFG
Description: as §1

[3] = tested on: T3, Rep nickase domain of cabbage leaf curl virus
T3 sequence (residues 1-116, tag not shown): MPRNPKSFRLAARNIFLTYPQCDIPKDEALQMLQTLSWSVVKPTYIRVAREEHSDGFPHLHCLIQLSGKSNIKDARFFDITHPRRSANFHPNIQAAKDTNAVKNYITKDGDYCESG
Description: as §1

[4] = tested on: T4, Rep nickase domain of chickpea chlorotic dwarf virus
T4 sequence (residues 1-124, tag not shown): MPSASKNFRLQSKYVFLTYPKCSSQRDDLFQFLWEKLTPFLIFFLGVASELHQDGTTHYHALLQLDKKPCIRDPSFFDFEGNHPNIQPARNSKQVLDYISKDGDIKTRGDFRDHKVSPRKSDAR
Description: as §1

[5] = tested on: T5, Rep nickase domain of faba bean necrotic yellows virus
T5 sequence (residues 1-98, tag not shown): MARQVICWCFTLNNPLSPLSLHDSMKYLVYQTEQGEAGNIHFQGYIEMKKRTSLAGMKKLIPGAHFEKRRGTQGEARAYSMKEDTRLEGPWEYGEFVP
Description: as §1

[6] = tested on: T6, Rep nickase domain of maize striate mosaic virus
T6 sequence (residues 1-117, tag not shown): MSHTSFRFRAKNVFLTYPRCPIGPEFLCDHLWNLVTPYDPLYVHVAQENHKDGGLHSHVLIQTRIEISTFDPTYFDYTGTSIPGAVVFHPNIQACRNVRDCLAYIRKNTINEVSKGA
Description: as §1

[7] = tested on: T7, Rep nickase domain of porcine circovirus 2
T7 sequence (residues 2-116, tag not shown): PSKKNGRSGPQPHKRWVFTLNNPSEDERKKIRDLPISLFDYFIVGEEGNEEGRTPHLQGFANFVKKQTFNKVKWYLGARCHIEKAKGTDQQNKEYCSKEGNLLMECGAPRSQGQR
Description: as §1

[8] = tested on: T8, Rep nickase domain of tomato golden mosaic virus
T8 sequence (residues 1-124, tag not shown): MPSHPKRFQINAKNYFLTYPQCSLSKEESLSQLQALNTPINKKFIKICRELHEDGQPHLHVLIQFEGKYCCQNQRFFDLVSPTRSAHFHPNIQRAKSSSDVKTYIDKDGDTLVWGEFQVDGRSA
Description: as §1

[9] = tested on: T9, Rep nickase domain of tomato yellow leaf curl virus
T9 sequence (residues 1-136, tag not shown): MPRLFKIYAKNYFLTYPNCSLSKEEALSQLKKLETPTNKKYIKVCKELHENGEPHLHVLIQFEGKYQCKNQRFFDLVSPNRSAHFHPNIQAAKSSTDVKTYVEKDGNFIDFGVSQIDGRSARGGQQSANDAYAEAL
Description: as §1

[10] = tested on: T10, Rep nickase domain of wheat dwarf virus
T10 sequence (residues 1-137, tag not shown): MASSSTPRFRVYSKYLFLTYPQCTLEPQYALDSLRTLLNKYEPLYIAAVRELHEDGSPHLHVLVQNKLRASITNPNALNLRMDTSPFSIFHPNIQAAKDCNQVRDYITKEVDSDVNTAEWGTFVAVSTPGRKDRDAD
Description: as §1

| Sequence | uncleaved DNA left (log2) [1] | uncleaved DNA left (log2) [2] | uncleaved DNA left (log2) [3] | uncleaved DNA left (log2) [4] | uncleaved DNA left (log2) [5] | uncleaved DNA left (log2) [6] | uncleaved DNA left (log2) [7] | uncleaved DNA left (log2) [8] | uncleaved DNA left (log2) [9] | uncleaved DNA left (log2) [10] |
| --- | --- | --- | --- | --- | --- | --- | --- | --- | --- | --- |
| CAGGGAC | 0.0787 | 0.154 | 0.803 | 1.97 | 0.213 | 2.09 | 0.364 | 0.295 | 0.155 | 0.251 |
| ACACGGG | -0.0441 | -0.0148 | -0.549 | -0.0656 | 0.0883 | -0.776 | 0.192 | 0.0074 | 0.0247 | 0.00898 |
| TCAAGCA | 0.111 | 0.175 | -0.00758 | -0.257 | 0.0146 | -0.548 | 0.0585 | 0.0906 | -0.0059 | 0.113 |
| GTGTCGT | -0.0934 | -0.0135 | 0.122 | 0.308 | -0.0129 | 0.0784 | -0.145 | 0.0179 | 0.0753 | -0.0289 |
| CCATGAA | -0.0987 | -0.128 | -0.411 | -0.516 | -0.0851 | -1.02 | -0.233 | -0.00298 | -0.0364 | -0.232 |
| GACATTA | -0.0259 | 0.147 | 0.825 | 1.49 | 0.0111 | 2.02 | 0.174 | 0.0569 | 0.0906 | 0.201 |
| ATAAGGC | -0.0136 | -0.0243 | -1.95 | -2.05 | 0.00879 | -1.04 | 0.102 | -0.0479 | -0.00855 | -0.322 |
| ACAACGG | 0.0106 | 0.0559 | -0.386 | -0.288 | 0.104 | -0.615 | 0.181 | 0.107 | -0.00401 | -0.0324 |
| AGTATGT | 0.068 | -0.0513 | -0.0805 | 0.0805 | 0.00592 | -0.0158 | -3.16 | -0.0362 | 0.116 | -0.0315 |
| TGCGATC | -0.061 | -0.131 | -0.172 | -0.0999 | -0.142 | -0.588 | -0.0662 | -0.0605 | -0.0899 | -0.15 |
| TCGACGA | -0.0885 | -0.0121 | -0.0112 | 0.265 | -0.098 | 0.314 | -0.000991 | -0.0905 | 0.0161 | 0.0515 |
| CCCTAAT | -2.14 | -0.166 | -0.275 | -1.08 | -0.138 | -0.7 | -3.2 | -0.195 | -0.127 | -0.146 |
| AGAGTCC | 0.16 | 0.0756 | 0.421 | 0.652 | 0.104 | 0.552 | -0.183 | 0.105 | 0.105 | 0.133 |
| ATCTTGA | 0.0737 | 0.0233 | -0.258 | -0.263 | 0.0689 | -1.07 | 0.0475 | -0.0541 | -0.0478 | 0.0653 |
| GATCCTG | 0.0898 | 0.0935 | 0.222 | 1.13 | -0.00673 | 1.38 | 0.155 | 0.0192 | 0.085 | 0.0863 |
| ATGGAAC | 0.151 | 0.0662 | 0.175 | 0.717 | 0.18 | 0.469 | 0.103 | 0.202 | -0.0139 | 0.121 |
| GGCGCTT | 0.0596 | 0.0896 | 0.405 | 0.993 | -0.000537 | 1.83 | -0.0426 | -8.96e-06 | -0.00336 | 0.00597 |
| TGGTTTT | -2.25 | -0.184 | 0.229 | -0.862 | -0.304 | 0.914 | -3.06 | -0.0766 | 0.0879 | -0.0497 |
| GTAGTGG | 0.0801 | 0.0285 | 0.243 | 0.577 | 0.011 | 0.323 | 0.122 | 0.119 | 0.0422 | 0.087 |
| ATATAGG | 0.0737 | -0.0121 | 0.126 | 0.958 | 0.0623 | 0.365 | 0.104 | 0.147 | -0.0124 | 0.0923 |
| TCTAGCC | -0.0146 | 0.0244 | -0.0102 | -0.418 | 0.0821 | -0.864 | 0.0416 | 0.0606 | 0.0729 | -0.0106 |
| TGGCACT | 0.172 | -0.0119 | 0.496 | 0.61 | -0.119 | 1.58 | 0.0599 | -0.0972 | 0.0653 | 0.168 |
| TGCCCCG | -0.0379 | -0.0902 | -0.834 | -0.29 | 0.0123 | -0.88 | -0.0633 | -0.156 | -0.00209 | -0.229 |
| AACACAA | -0.0641 | -0.0333 | -0.134 | -0.782 | 0.00222 | -0.789 | -0.00863 | -0.11 | -0.145 | -0.118 |
| GTATTCC | -0.047 | 0.0114 | 0.288 | 0.809 | 0.0239 | 1.64 | 0.0137 | 0.097 | 0.0187 | 0.0568 |
| CTTGCGA | -0.0631 | -0.00503 | -0.681 | -0.242 | -0.00442 | -0.614 | 0.0954 | -0.157 | 0.0503 | -0.0879 |
| CCGTGGC | 0.0643 | -0.181 | -0.0645 | -0.28 | -0.075 | -0.451 | 0.134 | -0.0597 | 0.059 | -0.0643 |
| AGGTCTC | -0.0749 | 0.0135 | 0.122 | 0.237 | 0.0124 | 0.558 | -0.114 | -0.0213 | 0.0734 | -0.0176 |
| GGGCGAG | 0.0428 | 0.124 | 0.876 | 1.98 | -0.0891 | 2.22 | 0.317 | 0.118 | 0.0682 | 0.123 |
